The source of these data is ChEMBL document CHEMBL4888484, “Replenishing the malaria drug discovery pipeline: Screening and hit evaluation of the MMV Hit Generation Library 1 (HGL1) against asexual blood stage Plasmodium falciparum ,using a nano luciferase reporter read-out” (2022).

The structures appear in SMILES notation. Out of some 150,000 compounds screened, about 540 (0.36%) showed an effect of 50% or more. This is one part of the list.

The experiment relates to Plasmodium falciparum. Description: Primary screen in NF54 nanoGlo assay, in single point, at 2uM, 72h; a lower Z score goes with more inhibition. In kind it is functional, Erythrocyte. Conditions: timepoint 72 hour.
Consider `COCC(O)CNC(=O)NC(c1ccccc1C)C(C)(C)C` (centres undefined), for which the “% Inhibition” value is on record as 30% and the Z score is reported as -3.35.

Regarding `COc1ccc2[nH]cc([C@H](CC(=O)NCCN3CCOCC3)c3cccc(C(F)(F)F)c3)c2c1`, the “% Inhibition” value is given as -9% and the Z score worked out at 1.15.

Take `CCC[C@H](C)N1CC2(CCN(C(=O)CCn3cc(C)cn3)CC2)OC1=O`: the “% Inhibition” value was -7% and the Z score is reported as 1.41.

In the case of `Cc1ccc(N2CCOC2=O)cc1NC(=O)N1CCCN(CC(F)F)CC1`, the “% Inhibition” value is -18% and the Z score is reported as 2.36.

Consider `O=C(c1ccco1)N1CCN(CC2([C@@H]3CCCCO3)CCC2)CC1`, for which the “% Inhibition” value was 2% and the Z score was -0.46.

As for `c1ccc2c(c1)nc(-c1ccc3c(c1)OCO3)n2Cc1ccc2c(c1)OCO2`, the “% Inhibition” value is reported as -6% and the Z score is on record as 0.59.

On to `CC1CCN(C(=O)Nc2nc3ccccn3n2)C1c1cccc(F)c1` (centres undefined), for which the “% Inhibition” value is recorded as -6% and the Z score was 0.75.

In the case of `Cc1c(CN2CCC[C@H]2c2nc(-c3ccncc3)no2)[nH]c2ccc(Cl)cc12`, the “% Inhibition” value is given as 4% and the Z score is reported as -0.8.

As to `O=C(NCCc1cccnc1)OCC(F)(F)F`, the “% Inhibition” value is 39% and the Z score is given as -5.57.

As for `COCCn1cc(CNc2nc3cccc(C)c3s2)c(=O)[nH]c1=O`, the “% Inhibition” value is recorded as -49% and the Z score is given as 5.71.

With `CN(Cc1cc(Br)ccc1F)C[C@](C)(O)C(=O)O`, the “% Inhibition” value was -15% and the Z score amounted to 1.89.

Take `N#CC1(CNC(=O)[C@@H]2CCCn3cc(C(F)(F)F)nc32)CCCCC1`: the “% Inhibition” value was 4% and the Z score is on record as -0.62.

In the case of `CC(=O)NCCc1noc(C2(c3ccccc3)CCC2)n1`, the “% Inhibition” value is recorded as -11% and the Z score is on record as 1.17.

Consider `O=C(Nc1ccc(-c2ccco2)cc1)N1C[C@H](CO)[C@@H](CO)C1`, for which the “% Inhibition” value is -13% and the Z score is on record as 1.21.

Take `COC[C@H]1CCN(C(=O)Nc2c(F)cccc2Oc2ccccc2)C1`: the “% Inhibition” value is given as -6% and the Z score is reported as 0.55.

With `CC1CC(CNC(=O)NCC2CCCC(O)C2)CC(C)O1` (centres undefined), the “% Inhibition” value is -5% and the Z score is 1.02.

On to `Cc1nc(-c2ccco2)ccc1C(=O)Nc1ccc(-n2cncn2)nc1`, for which the “% Inhibition” value is -17% and the Z score stood at 2.62.

Turning to `CS(=O)(=O)N[C@H]1CC12CCN(C(=O)Cc1c[nH]c3ccccc13)CC2`, the “% Inhibition” value was -13% and the Z score amounted to 1.55.

In the case of `O=C(Cc1cccs1)N1CCC[C@@](F)(C(=O)N2CCOCC2)C1`, the “% Inhibition” value is listed as -29% and the Z score stood at 2.59.

`Cc1cc(=O)c(C(=O)NC(C)(C)c2ccccc2Br)c[nH]1`: the “% Inhibition” value was determined as 6% and the Z score is recorded as -1.07.

Regarding `NC(=O)c1ccc(NC(=O)N2CCC[C@H](c3cc(F)ccc3F)C2)cc1F`, the “% Inhibition” value worked out at 37% and the Z score is reported as -4.74.

Turning to `Cc1ncn(-c2cc(N3CCN(C(=O)Cc4c[nH]c5ccccc45)CC3)ncn2)c1C`, the “% Inhibition” value is -4% and the Z score was 0.4.

`CCS(=O)(=O)n1nc(Nc2ccccc2OC)cc1Nc1ccccc1OC`: the “% Inhibition” value is on record as -5% and the Z score worked out at 0.71.

With `CC(CNC(=O)C1c2c[nH]nc2CCC1C)COCc1ccccc1` (centres undefined), the “% Inhibition” value is given as 2% and the Z score is listed as -0.28.

With `NC(=NCc1ccc(-n2cncn2)nc1)c1ccccc1`, the “% Inhibition” value is recorded as -3% and the Z score turned out to be 0.63.

Regarding `Cc1ccc(-c2nnc(N3CCC(C(=O)NC[C@H]4CCCO4)CC3)o2)cc1`, the “% Inhibition” value was -5% and the Z score came to 0.82.

As to `CC(=O)N1CCN(C(=O)[C@@H]2COC3(CCC(C)CC3)N2C(=O)c2ccc(F)cc2F)CC1` (some centres undefined), the “% Inhibition” value was determined as 11% and the Z score was -1.66.

On to `CN=C(NCc1cnn(C)c1)NCc1ccc(C)cc1OCC1CC1`, for which the “% Inhibition” value was -10% and the Z score is 1.45.

As to `CCN(CC)[C@@H](C)CNCc1c[nH]nc1-c1cccnc1`, the “% Inhibition” value is -4% and the Z score amounted to 0.53.

For `CC(CCc1cccn1C)NC(=O)N(C)C(C)C1CC1` (centres undefined), the “% Inhibition” value is recorded as -8% and the Z score worked out at 1.

As to `C[C@H]1CN(c2ncnc3c2CCN(Cc2cccnc2)CC3)CCN1C`, the “% Inhibition” value was -4% and the Z score was 0.58.

Regarding `C=C(C)CN(C)[C@@H](C)c1cccc(O)c1`, the “% Inhibition” value is given as 3% and the Z score is recorded as -0.5.

For the compound `CCN(CCn1cccn1)c1nc2c(s1)c(C)nn2C`, the “% Inhibition” value was -22% and the Z score stood at 2.59.

Regarding `CCn1c(C)cc(C(=O)N2CCC(C(N)=O)CC2)c1C`, the “% Inhibition” value is recorded as -13% and the Z score is 1.19.

In the case of `CO[C@H]1COCC[C@@H]1NC(=O)c1ccc2ccccc2n1`, the “% Inhibition” value is on record as -6% and the Z score amounted to 1.1.

Consider `Cc1[nH]c(=O)n(C)c(=O)c1CCC(=O)Nc1ccc2c(c1)NC(=O)[C@H](C)O2`, for which the “% Inhibition” value came to 2% and the Z score is given as -0.32.

With `COc1cc(C)ccc1Oc1ccc(NC(=O)CNCC2CC2)cc1F`, the “% Inhibition” value is on record as -7% and the Z score is reported as 1.03.

`CC(C)(C)c1cc(C(C)(C)C)c(C(N)=O)c(=O)[nH]1`: the “% Inhibition” value is on record as 5% and the Z score is recorded as -0.79.

With `CC(C)CC1OCCCC1NC(=O)N1CC2CCC1CN2` (centres undefined), the “% Inhibition” value is given as 0% and the Z score is 0.03.

Turning to `O=C(Cn1cnc2c(nc3n2CCCCC3)c1=O)NCc1ccc(F)cc1`, the “% Inhibition” value is -5% and the Z score was determined as 0.84.

As to `C[C@H](NC(=O)Cn1cnc(C#N)c1C#N)c1cccs1`, the “% Inhibition” value is given as -6% and the Z score was 1.08.

For the compound `CCc1ccc2nc(C)cc(C(=O)N3CCC4(CC3)C(=O)N(C)C(=O)N4C)c2c1`, the “% Inhibition” value is 12% and the Z score is on record as -1.77.
